Test results: publication PMC6451091
The list shows a part of the results. For part of these data: At the low end of the ranking the order means little. For part of these data: Measured with an extract: partners may take part in the binding.

Tests used:
Details in all cases: 20 mM HEPES pH 7.9, 100 mM NaCl, 1 mM DTT, 0.2 mg/mL BSA, 0.02% Triton X-100, 2% milk, 0.4 mg/mL salmon testes DNA; 1 h; temperature not stated; high values mean tight binding; double strand, one strand shown; sequences stand for … in GCCTAGCAC…GTGCTAGGTCTTGATTCGCTTGACGCTGCTG
[1] = target: PU.1 (IVT) (UniProt P17947); experiment: protein-binding microarray (PBM)
[2] = target: PU.1 (endogenous, THP-1 nuclear extract) (UniProt P17947); experiment: nuclear extract protein-binding microarray (nextPBM)
[3] = target: T1, FLI1 (endogenous, THP-1 nuclear extract) (UniProt Q01543); experiment: as above
T1 sequence: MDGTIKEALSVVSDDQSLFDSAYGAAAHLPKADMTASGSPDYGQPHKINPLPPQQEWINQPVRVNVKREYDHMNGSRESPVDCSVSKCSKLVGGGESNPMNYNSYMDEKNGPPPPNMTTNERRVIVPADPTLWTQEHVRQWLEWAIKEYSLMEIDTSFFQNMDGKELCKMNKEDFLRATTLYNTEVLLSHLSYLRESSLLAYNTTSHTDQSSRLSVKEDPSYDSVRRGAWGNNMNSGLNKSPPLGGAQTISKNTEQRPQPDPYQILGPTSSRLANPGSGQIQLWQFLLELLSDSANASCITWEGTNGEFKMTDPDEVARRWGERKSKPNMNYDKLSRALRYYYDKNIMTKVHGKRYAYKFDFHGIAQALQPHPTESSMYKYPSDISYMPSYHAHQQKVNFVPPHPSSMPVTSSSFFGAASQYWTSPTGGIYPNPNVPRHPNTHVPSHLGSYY

Sequence	binding signal [1] [z-score]	binding signal [2] [z-score]	binding signal [3] [z-score]
CCGATGGGGAAGTGGTGCTG	4.58	5.1	1.78
GGAAAGAGGAAGTGAGTGGG	8.08	7.41	4.19
AGAGAGGGGAAGTGTGCTCC	3.47	3.2	2.12
AAATAAAGGAAGTGCTTTGG	5.17	5.19	2.66
AACAACAGGAAGTGCCTTTT	4.57	4.91	5.02
AGAAAGAGGAACTGCTTCAA	6.72	6.91	2.53
GCAGTGGGGAAGTGCCTAAA	3.16	2.88	1.29
AGGAAGGGGAACTGAAAACG	3.94	3.7	2.68
GCATAGAGGAAGTGGCGGCA	4.83	4.8	2.81
AGAAAGGGGAAGAGGCTAGG	3.74	4.35	1.15
AAAAAAAGGAAGTGGAATTA	6.73	6.64	3.14
TAAAAGGAGAAGTGAACCGG	4.76	5.2	1.33
TAAGAGAGGAAGTGACTGAG	4.76	4.74	3.12
GGAAGGGGGAAGTGGTGCAG	4.41	4.69	1.94
AAAAAGAGGAACTCGAATTA	7.11	7.24	2.39
GATAGCAGGAAGTGGGCAGA	2.58	2.76	3.55
AAAAAAAGGAAGTCAGTGTT	6.32	6.14	2.72
GAAAACAGGAAGTGCCATAG	7.41	7.11	5.12
GAAAACAGGAAGTCTCATAG	6.79	6.82	4.54
CGAAAGGGGAAGCGCTAAAC	4.66	5.18	1.77
CAAATGAGGAATTGATGCGG	2.8	2.61	0.747
GAAAACAGGAAGTCTAGGCT	6.87	6.78	4.48
AGAGGAAGGAAGTGATAAAA	2.26	1.93	2.09
GGTAGAGAGAAGTACTGTGG	1.15	1.08	-0.907
GAGAAGAGGAAGTGTGTGCA	6.28	6.61	2.65

Sequence	binding signal [1] [z-score]	binding signal [2] [z-score]	binding signal [3] [z-score]
CAAAAAGGGAAGTGGGTGCT	7.29	6.78	3.14
AAAAAAGGGAAGTGTTGGAG	7.46	6.99	2.81
GGAAAAGGGAAGTGGAATCA	6.56	6.52	2.64
AAAAAGAGGAAGAGGAATAG	5.98	6.43	2.45
AAAAAGAGGAAGAGGAGGAG	5.1	6.06	1.67
TGGGAAAGGAAGTGGGTGTG	1.92	1.9	2.66
GATTTGGGGAAGTGAGGGCT	4.91	5.96	1.9
AAGGAGAGGAAGTGAGGGTC	3.88	3.98	2.81
ACAAAAAGGAAGTGTGCCCC	3.5	2.9	2.47
CAAAAGAGGAAGTCAAATTG	8.09	7.16	3.85
AAAAAGAGGAAGAGGCGCTT	5.63	6.28	2.24
TTTTAAGGGAAGTGGTCTTT	3.96	3.98	1.78
TGATTGAGGAAGTGGCTGGG	5.54	6.3	3
TCAGTGAGGAAGTGAGATAA	3.62	3.64	2.21
AAATAAAGGAACTGCTTTAA	3.07	3.01	1.02
AGGAAGAGGAAGTCCCTCAA	5.93	6.54	3.46
CAAAAGAGGAAGTGGCATAT	8.01	7.16	4.19
CAAAAGAGGAAGTCAAACAC	7.73	7.19	3.71
GTTTTGAGGAACTGCCAAAC	4.78	4.66	1.14
GATAAGAGGAAGTCCTCTGT	5.99	6.47	3.12
GAATACAGGAAGTCCCATAG	4.5	5.34	4.05
GAAAAGAGGAAGTCTTGCAT	8.22	7.31	3.81
AAACAAAGGAACTGGCTAGA	0.473	1.21	0.692
ACATAAAGGAACTGTGCCCC	0.768	1.03	0.992
